Test results reported in publication PMC12866851.
Results are given in words; binding and its absence hold for the method and conditions named. In cells and extracts the contact can be indirect. Some results given as binding are weak or reduced against the parent protein; the word gives no strength. For some assays here: Sequences can lack the tags named with a protein. Blank lines part the entries; values can stand above or below the binder they belong to.

The chains behind the UniProt entries cited, without tags or fusion partners.
UniProt Q00987: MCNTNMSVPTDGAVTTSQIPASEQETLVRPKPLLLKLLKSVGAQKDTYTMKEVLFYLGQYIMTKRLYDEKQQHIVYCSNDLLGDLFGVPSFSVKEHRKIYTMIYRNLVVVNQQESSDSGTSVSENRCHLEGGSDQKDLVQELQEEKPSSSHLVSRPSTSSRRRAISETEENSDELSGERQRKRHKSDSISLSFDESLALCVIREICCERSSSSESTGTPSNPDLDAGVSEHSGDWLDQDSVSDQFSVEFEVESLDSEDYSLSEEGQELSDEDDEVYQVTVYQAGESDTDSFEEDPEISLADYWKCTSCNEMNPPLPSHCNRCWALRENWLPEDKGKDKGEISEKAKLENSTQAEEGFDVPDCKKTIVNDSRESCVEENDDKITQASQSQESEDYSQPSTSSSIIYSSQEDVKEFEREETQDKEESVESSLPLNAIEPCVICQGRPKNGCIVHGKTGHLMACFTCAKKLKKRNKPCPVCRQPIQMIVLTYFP
UniProt Q15388: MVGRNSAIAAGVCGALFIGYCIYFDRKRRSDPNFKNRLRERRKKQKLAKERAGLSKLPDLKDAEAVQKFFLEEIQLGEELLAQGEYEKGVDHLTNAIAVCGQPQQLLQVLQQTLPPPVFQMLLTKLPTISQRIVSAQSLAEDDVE

Tests used:
[1] = target: T1, Long‐chain acyl‐CoA synthetase 5 (ACSL5) (human (endogenous in HCT116)) (UniProt Q9ULC5); assay: co-IP; endogenous proteins of HCT116 lysate; IP lysis buffer (50 mM Tris-HCl pH 7.4, 150 mM NaCl, 1 mM EDTA, 5% glycerol, 0.4% Triton X-100, 0.4% NP-40); primary antibody overnight at 4 °C, Protein A/G beads 2 h, five washes; Western blot; in Figure 4I cells cultured with or without glutamine for 48 h
T1 sequence: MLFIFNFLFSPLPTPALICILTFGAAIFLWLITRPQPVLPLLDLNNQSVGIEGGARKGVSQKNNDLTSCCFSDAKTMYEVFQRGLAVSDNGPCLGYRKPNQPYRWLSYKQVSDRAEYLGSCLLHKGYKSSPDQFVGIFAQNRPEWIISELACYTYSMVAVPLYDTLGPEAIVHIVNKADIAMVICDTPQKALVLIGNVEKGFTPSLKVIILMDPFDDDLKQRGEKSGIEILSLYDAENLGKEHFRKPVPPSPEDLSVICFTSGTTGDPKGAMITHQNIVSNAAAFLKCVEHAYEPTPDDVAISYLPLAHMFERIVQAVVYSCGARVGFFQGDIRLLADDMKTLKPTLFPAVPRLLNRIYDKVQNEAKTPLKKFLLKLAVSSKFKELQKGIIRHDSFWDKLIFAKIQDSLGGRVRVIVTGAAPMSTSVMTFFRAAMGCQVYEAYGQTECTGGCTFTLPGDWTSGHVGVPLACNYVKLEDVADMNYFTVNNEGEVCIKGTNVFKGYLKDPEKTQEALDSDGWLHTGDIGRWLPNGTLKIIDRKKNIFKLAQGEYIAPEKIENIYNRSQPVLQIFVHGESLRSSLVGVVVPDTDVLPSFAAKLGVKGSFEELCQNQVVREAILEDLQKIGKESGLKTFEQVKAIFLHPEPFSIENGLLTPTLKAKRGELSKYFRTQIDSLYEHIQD

[2] = target: MDM2 (human (endogenous in HCT116)) (UniProt Q00987); assay: co-IP; MDM2 immunoprecipitates of ubiquitination assays in sh-ctrl or sh-ACSL5 HCT116 cells, with or without glutamine deficiency, followed by MG132; blotted for ubiquitin, MDM2 and ACSL5
[3] = target: T2, HA and GFP epitope‐tagged IDH2 constructs (UniProt P48735); assay: co-IP; two-phase immunoprecipitation with HA- and GFP-tagged IDH2 constructs; endogenous ACSL5 detected; cells not shown
T2 sequence: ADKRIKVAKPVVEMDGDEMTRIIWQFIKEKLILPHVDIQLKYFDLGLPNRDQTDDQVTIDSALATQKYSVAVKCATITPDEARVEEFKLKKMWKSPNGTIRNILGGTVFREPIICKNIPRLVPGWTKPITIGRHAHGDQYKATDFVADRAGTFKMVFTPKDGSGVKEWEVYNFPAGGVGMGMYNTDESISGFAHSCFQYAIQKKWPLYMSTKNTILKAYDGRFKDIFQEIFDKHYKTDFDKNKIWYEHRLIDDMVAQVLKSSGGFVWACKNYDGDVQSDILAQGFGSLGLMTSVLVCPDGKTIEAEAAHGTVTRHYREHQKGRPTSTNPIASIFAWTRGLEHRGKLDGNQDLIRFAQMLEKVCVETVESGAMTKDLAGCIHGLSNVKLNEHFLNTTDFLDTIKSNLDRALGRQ

[4] = target: T3, TOM70 (human (endogenous in HCT116)) (UniProt O94826); assay: co-IP; endogenous proteins of HCT116 lysate; IP lysis buffer (50 mM Tris-HCl pH 7.4, 150 mM NaCl, 1 mM EDTA, 5% glycerol, 0.4% Triton X-100, 0.4% NP-40); primary antibody overnight at 4 °C, Protein A/G beads 2 h, five washes; Western blot; in Figure 4I cells cultured with or without glutamine for 48 h
T3 sequence: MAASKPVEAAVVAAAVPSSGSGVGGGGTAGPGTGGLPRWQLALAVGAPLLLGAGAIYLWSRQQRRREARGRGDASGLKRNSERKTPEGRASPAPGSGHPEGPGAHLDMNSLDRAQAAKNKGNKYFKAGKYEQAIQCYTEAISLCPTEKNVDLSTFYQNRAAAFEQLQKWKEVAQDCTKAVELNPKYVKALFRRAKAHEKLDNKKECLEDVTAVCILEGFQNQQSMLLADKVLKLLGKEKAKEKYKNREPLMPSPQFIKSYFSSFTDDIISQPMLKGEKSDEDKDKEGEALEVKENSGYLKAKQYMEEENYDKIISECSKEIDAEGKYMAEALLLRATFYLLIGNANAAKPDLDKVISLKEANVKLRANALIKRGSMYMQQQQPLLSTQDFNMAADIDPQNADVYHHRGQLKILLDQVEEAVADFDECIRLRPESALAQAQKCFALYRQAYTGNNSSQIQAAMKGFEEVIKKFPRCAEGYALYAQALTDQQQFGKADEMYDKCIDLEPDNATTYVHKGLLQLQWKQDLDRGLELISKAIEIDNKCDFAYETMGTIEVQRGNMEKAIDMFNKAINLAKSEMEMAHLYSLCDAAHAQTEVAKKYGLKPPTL

[5] = target: T4, TOM40 (human (endogenous in HCT116)) (UniProt O96008); assay: as above
T4 sequence: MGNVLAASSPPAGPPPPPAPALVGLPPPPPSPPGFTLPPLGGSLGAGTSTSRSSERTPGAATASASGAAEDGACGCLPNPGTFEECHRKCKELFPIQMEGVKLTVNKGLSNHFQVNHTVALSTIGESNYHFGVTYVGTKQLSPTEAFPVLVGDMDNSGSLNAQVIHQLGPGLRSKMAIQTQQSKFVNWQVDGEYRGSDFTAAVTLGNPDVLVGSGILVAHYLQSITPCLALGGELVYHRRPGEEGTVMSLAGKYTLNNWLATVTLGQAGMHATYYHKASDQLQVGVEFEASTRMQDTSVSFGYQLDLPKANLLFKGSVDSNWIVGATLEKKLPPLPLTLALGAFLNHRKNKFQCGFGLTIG

[6] = target: TOM20 (human (endogenous in HCT116)) (UniProt Q15388); assay: as above

B3: TOM40 (protein, UniProt O96008 1-361)
chain: MGNVLAASSPPAGPPPPPAPALVGLPPPPPSPPGFTLPPLGGSLGAGTSTSRSSERTPGAATASASGAAEDGACGCLPNPGTFEECHRKCKELFPIQMEGVKLTVNKGLSNHFQVNHTVALSTIGESNYHFGVTYVGTKQLSPTEAFPVLVGDMDNSGSLNAQVIHQLGPGLRSKMAIQTQQSKFVNWQVDGEYRGSDFTAAVTLGNPDVLVGSGILVAHYLQSITPCLALGGELVYHRRPGEEGTVMSLAGKYTLNNWLATVTLGQAGMHATYYHKASDQLQVGVEFEASTRMQDTSVSFGYQLDLPKANLLFKGSVDSNWIVGATLEKKLPPLPLTLALGAFLNHRKNKFQCGFGLTIG
binding [1]: no binding

B4: Long‐chain acyl‐CoA synthetase 5 (ACSL5) (enzyme, UniProt Q9ULC5 1-683)
chain: MLFIFNFLFSPLPTPALICILTFGAAIFLWLITRPQPVLPLLDLNNQSVGIEGGARKGVSQKNNDLTSCCFSDAKTMYEVFQRGLAVSDNGPCLGYRKPNQPYRWLSYKQVSDRAEYLGSCLLHKGYKSSPDQFVGIFAQNRPEWIISELACYTYSMVAVPLYDTLGPEAIVHIVNKADIAMVICDTPQKALVLIGNVEKGFTPSLKVIILMDPFDDDLKQRGEKSGIEILSLYDAENLGKEHFRKPVPPSPEDLSVICFTSGTTGDPKGAMITHQNIVSNAAAFLKCVEHAYEPTPDDVAISYLPLAHMFERIVQAVVYSCGARVGFFQGDIRLLADDMKTLKPTLFPAVPRLLNRIYDKVQNEAKTPLKKFLLKLAVSSKFKELQKGIIRHDSFWDKLIFAKIQDSLGGRVRVIVTGAAPMSTSVMTFFRAAMGCQVYEAYGQTECTGGCTFTLPGDWTSGHVGVPLACNYVKLEDVADMNYFTVNNEGEVCIKGTNVFKGYLKDPEKTQEALDSDGWLHTGDIGRWLPNGTLKIIDRKKNIFKLAQGEYIAPEKIENIYNRSQPVLQIFVHGESLRSSLVGVVVPDTDVLPSFAAKLGVKGSFEELCQNQVVREAILEDLQKIGKESGLKTFEQVKAIFLHPEPFSIENGLLTPTLKAKRGELSKYFRTQIDSLYEHIQD
binding [2]: no binding
binding [3]: binds
binding [4]: no binding
binding [5]: no binding
binding [6]: binds

Continued, values first:

binding [1]: no binding
B1: TOM70 (receptor, UniProt O94826 1-608)
chain: MAASKPVEAAVVAAAVPSSGSGVGGGGTAGPGTGGLPRWQLALAVGAPLLLGAGAIYLWSRQQRRREARGRGDASGLKRNSERKTPEGRASPAPGSGHPEGPGAHLDMNSLDRAQAAKNKGNKYFKAGKYEQAIQCYTEAISLCPTEKNVDLSTFYQNRAAAFEQLQKWKEVAQDCTKAVELNPKYVKALFRRAKAHEKLDNKKECLEDVTAVCILEGFQNQQSMLLADKVLKLLGKEKAKEKYKNREPLMPSPQFIKSYFSSFTDDIISQPMLKGEKSDEDKDKEGEALEVKENSGYLKAKQYMEEENYDKIISECSKEIDAEGKYMAEALLLRATFYLLIGNANAAKPDLDKVISLKEANVKLRANALIKRGSMYMQQQQPLLSTQDFNMAADIDPQNADVYHHRGQLKILLDQVEEAVADFDECIRLRPESALAQAQKCFALYRQAYTGNNSSQIQAAMKGFEEVIKKFPRCAEGYALYAQALTDQQQFGKADEMYDKCIDLEPDNATTYVHKGLLQLQWKQDLDRGLELISKAIEIDNKCDFAYETMGTIEVQRGNMEKAIDMFNKAINLAKSEMEMAHLYSLCDAAHAQTEVAKKYGLKPPTL

binding [1]: binds
B2: isocitrate dehydrogenase 2 (IDH2) (enzyme, UniProt P48735 40-452)
chain: ADKRIKVAKPVVEMDGDEMTRIIWQFIKEKLILPHVDIQLKYFDLGLPNRDQTDDQVTIDSALATQKYSVAVKCATITPDEARVEEFKLKKMWKSPNGTIRNILGGTVFREPIICKNIPRLVPGWTKPITIGRHAHGDQYKATDFVADRAGTFKMVFTPKDGSGVKEWEVYNFPAGGVGMGMYNTDESISGFAHSCFQYAIQKKWPLYMSTKNTILKAYDGRFKDIFQEIFDKHYKTDFDKNKIWYEHRLIDDMVAQVLKSSGGFVWACKNYDGDVQSDILAQGFGSLGLMTSVLVCPDGKTIEAEAAHGTVTRHYREHQKGRPTSTNPIASIFAWTRGLEHRGKLDGNQDLIRFAQMLEKVCVETVESGAMTKDLAGCIHGLSNVKLNEHFLNTTDFLDTIKSNLDRALGRQ
